Assay results as given in article PMC12040169 (PLOS Biology, 2025).
The other results are listed elsewhere or left out.

These molecules were tested on T1, C. trachomatis L2/434/Bu expressing GFP (CTL2-GFP). Conditions: total inclusion area; 28.5 h, 10 µM; inhibitor.
T1 construct: L2/434/Bu GFP intracellular growth in HeLa cells
Design: species or system HeLa; C. trachomatis total inclusion area by high-content imaging, normalised to DMSO
How it was run: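 High-content imaging followed the bulk GFP/resorufin measurement: fixed, Hoechst-stained cells were scored for GFP inclusions and host nuclei per well. Total inclusion area and count served as growth proxies, nuclei number as the viability proxy. MIC calculation matched the bulk assay.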

Compound	% of control remaining
COc1ccc(NC(=O)CSc2nnc(-c3ccncc3)n2-c2ccc(C)cc2)cc1Cl [CBK266187]	122.042
COc1cncc(C(NC(=O)c2cc(=O)cc(C)o2)[C@H]2C[C@@H](O)C2)c1 (some centres unmarked) [CBK306833]	56.0101
CCOCC1CN(c2cc(CO)c(F)cn2)CCO1 (centres unmarked) [CBK304756]	33.5456
COc1cccc(N2C(=O)N[C@@H]3CCN(C(=O)c4cccs4)[C@@H]3C2=O)c1 [CBK289279]	94.9636
CCCN(C(C)=O)c1nc(O)cc(C(F)(F)F)n1 [CBK000427]	82.6276
O=C(NC1Cc2ccccc2C1)c1cscn1 [CBK200363]	86.5014
CS(=O)(=O)c1ccc(CNC(=O)c2ccccc2Nc2cccc(C(F)(F)F)c2)cc1 [CBK149580]	86.3339
COc1cccc(C(=O)N2CCN(C)C(=O)C2Cc2ccccc2-c2ccccc2)c1OC (centres unmarked) [CBK285828]	113.33
CCCCc1ccc(NC(=S)NC(=O)c2ccc(OC)c(OC)c2)cc1 [CBK157691]	83.6277
CN(C)c1ccc(-c2[nH][nH]c(=O)c2CCCN)cc1 [CBK288406]	99.252
Cc1nc2sccn2c1-c1csc(Nc2cccc(C(=O)O)c2)n1 [CBK263291B]	85.0082
COCCn1cc(C(=O)N2CCOC3CCCCC32)c2ccccc21 (centres unmarked) [CBK305288]	14.6114
CSc1nc2ccc(Nc3cc(C)nc4ncnn34)cc2s1 [CBK297724]	87.2796
COc1ccc(Cc2nc3ccccc3n2CCc2ccccc2)cc1 [CBK266385]	95.2196
O=C(COCc1nc2ccccc2[nH]1)N1CCC(c2ccccc2)C1 (centres unmarked) [CBK281840]	112.42
COc1ccc(C(=O)NC(NCc2ccco2)C(Cl)(Cl)Cl)cc1 (centres unmarked) [CBK262279]	77.1544
NC1CCCN(C(=O)c2ccc(Oc3cccc(Br)c3)nc2)C1 (centres unmarked) [CBK304747]	66.3672
O=C(NCCCC1CCOC1)c1cc2ccc(F)cc2[nH]1 (centres unmarked) [CBK283213]	72.625
CC(=O)Nc1ccc(S(=O)(=O)N2CCC(N3CCOCC3)CC2)cc1 [CBK264653G]	90.6728
CS(=O)(=O)N1CC2(CCN(C(=O)[C@@H](N)COCc3ccccc3)CC2)c2ccccc21 [CBK022597C]	79.0803
Cc1cc(C2CCCCCN2C(=O)c2cc(C(C)C)on2)on1 (centres unmarked) [CBK281733]	92.3826

Compound	% of control remaining
CCC1(C)CC(=O)c2cc(NC(=O)N(CCO)CCO)ccc2O1 (centres unmarked) [CBK307003]	57.4309
CC(C)NC(=O)c1sc2ccccc2c1C1CN(C(=O)CC2CCCCC2)CCO1 (centres unmarked) [CBK285869]	116.944
CC(=O)c1ccccc1-c1cnc(N(C)S(C)(=O)=O)c(C(=O)NCCc2ccccc2)c1 [CBK076516]	101.983
Fc1cccc(-c2nc(-c3cccnc3)no2)c1 [CBK270260]	114.247
N=C(N)SCCCCSC(=N)N [CBK278304B]	99.9341
CN1CCN(C(=S)SCc2nc(N)nc(Nc3ccc(F)cc3)n2)CC1 [CBK265230]	92.0748
CCC1(CC)OC(N[C@@H](CO)c2ccccc2)=NC1=O [CBK126756]	89.5182
O=C(CN1CCC(c2ccc(F)cc2)CC1)Nc1nccs1 [CBK283566]	75.0182
O=C(O)c1ccc(NC2OC(CO)C(O)C2O)cc1 (centres unmarked) [CBK218836]	106.097
CCN(C(=O)c1ccc(=O)[nH]c1)C(CC1CCCCC1)c1ccccc1 (centres unmarked) [CBK062678]	21.7228
CN1[C@@H](CCC(=O)N2CCN(c3ccccn3)CC2)CNC(=O)[C@H]2NCC[C@H]21 [CBK289031]	95.0821
COC(=O)Cn1c(=O)c2c(nc3oc(C(C)(C)C)cn32)n(C)c1=O [CBK306029]	59.5283
O=C(NCCSCc1c(F)cccc1Cl)Nc1ccccc1 [CBK265340]	91.2961
COc1ccc(-c2cn(-c3ccc(OC(F)(F)F)cc3)nn2)cc1 [CBK113024]	92.808
CCOCCCNC(=O)c1cnn2c(C)c(Cc3cccnc3)c(C)nc12 [CBK162152]	23.7878
COc1c(Cl)ccc(Cl)c1C(=O)OCC(=O)O [CBK264596]	94.4762
FC(F)(F)c1ccnc(SCCc2ccccn2)c1 [CBK103709]	103.53
CCCNc1nc(-c2cc(OC)c(OC)c(OC)c2)cn2ccnc12 [CBK066363]	110.544
Cc1nn(C)c(N2CCNCC2)c1NC(=O)/C=C/c1cccnc1 [CBK050354T]	95.877
O=C(CN1CCCC2(CCN(C(=O)c3ccoc3)C2)C1)Nc1ncccn1 (centres unmarked) [CBK137140]	99.5785
O=C(Nc1cccnc1)c1c(O)n(Cc2ccccc2)c2ccccc2c1=O [CBK291206]	95.7168

Compound	% of control remaining
Cc1nn(C)c(Cl)c1CN(CCC#N)Cc1ccco1 [CBK304825]	35.8179
S=C(NCCc1c[nH]c2ccccc12)NCc1ccco1 [CBK267157]	123.277
CC(C)NC(=O)CSc1nc2ccccc2[nH]1 [CBK072235]	88.0679
O=C(NCCC1SC(NC2CCCCCC2)=NC1=O)Nc1ccc(F)cc1F (centres unmarked) [CBK067469]	53.4256
O=C(Cn1cnc2ccccc21)N1CCC(c2ccccc2)C1 (centres unmarked) [CBK281845]	113.816
Cc1cccc(Nc2nc(N)nc(CC(=O)CSc3ccc(Cl)cc3)n2)c1 [CBK265204]	89.8804
COc1c(O)ccc(/C=N/NC(=O)c2cccnc2)c1[N+](=O)[O-] [CBK262197]	78.017
C#CCNC(=O)N1CCC(c2c[nH]c3ccccc23)CC1 [CBK305034]	32.2837
CC(C)C(=O)N1CCC(c2[nH]ncc2-c2ccncc2)CC1 [CBK284237]	86.3166
CCCN(C(=O)CCc1ccc(C)cc1C)C1CCNCC1 [CBK304302C]	68.4279
Cc1cc(CN(C)C(=O)Cc2csc(NC(=O)c3ccoc3C)n2)no1 [CBK305779]	36.1553
O=C(NC[C@H]1C[C@@H]2CC[N@]1C[C@@H]2CN1CCN(c2ccccn2)CC1)c1ccco1 [CBK288867]	91.9345
Cc1cccc(C(N)=O)c1O [CBK012294]	94.3882
CC(=O)N1C[C@H](c2ccsc2)[C@H]2CN(Cc3cccs3)CC[C@H]21 [CBK284586]	72.7743
CCc1ccc(S(=O)(=O)Nc2ccc(O)c(C(=O)O)c2)cc1 [CBK299827]	63.8485
Oc1cccc(Sc2nccc(C(F)(F)F)n2)c1 [CBK093801]	107.235
O=C(O)CCCC(=O)N(c1ccccc1)c1ccccc1 [CBK286901]	86.3268
FC(F)(F)C1CN(C2CCCCC2)C(=S)S1 (centres unmarked) [CBK009719]	64.626
Cc1nc2n(/N=C/c3ccc([N+](=O)[O-])cc3)c3ccccc3n2c1C#N [CBK263107]	104.37
O=C(O)CCSc1nnnn1C1CCCCC1 [CBK263052]	104.995
Cc1ccccc1OCC(O)Cn1c(=N)n(CCN2CCCCC2)c2ccccc21 (centres unmarked) [CBK266698C]	71.8838

Compound	% of control remaining
COc1ccccc1CN(Cc1cccnc1)C(=O)CNC(C)=O [CBK306843]	74.9621
Cn1cc(CN2CCCC(c3cc4ccccc4cn3)C2)cn1 (centres unmarked) [CBK285042]	78.2603
Cc1ccc(NC(=O)c2cc(C(=O)Nc3ccc(C)c(C)c3)cc(N3C(=O)c4ccccc4C3=O)c2)cc1C [CBK261328]	106.541
CCOc1cccc(-c2cncc(NCc3cccs3)n2)c1 [CBK066034]	85.4136
O=c1/c(=C/c2ccc3c(c2)OCO3)sc2nc3cc(Br)cnc3n12 [CBK262550]	104.968
O=c1[nH]c2ccccc2n1C1CCN(CCOC(c2ccc(F)cc2)c2ccc(F)cc2)CC1 [CBK099807G]	100.308
CC(CCCC(C)(C)O)Nc1cncc(-c2cccc(Cl)c2)n1 (centres unmarked) [CBK037857]	92.2498
CCOC(=O)c1ccoc1CN1CCCC1c1ccsc1 (centres unmarked) [CBK304878]	57.5273
O=c1c2scc(-c3cccc(F)c3)c2ncn1Cc1ccc(F)cc1 [CBK287810]	63.9154
COc1cc2c(cc1OC)C(C)N(Cc1cc(C)c(O)c(C)c1)CC2 (centres unmarked) [CBK074659C]	13.0819
CCCS(=O)(=O)N1CCN(CCN2C(=O)c3cccc4cccc(c34)C2=O)CC1 [CBK265559]	87.2119
Cc1cc(NC(=O)c2cccs2)nc2c1c(=O)oc1ccccc12 [CBK287439]	107.057
CCn1ncc(CN2CCC(c3onc4c3CCCC4)CC2)c1C [CBK284576]	92.2222
Cc1nc(CN2CCCC3(CCN(C(=O)c4ccoc4)C3)C2)cs1 (centres unmarked) [CBK132838]	87.5219
COc1ccc(Br)cc1C1CCCN1C(=O)Cc1cnccc1C (centres unmarked) [CBK304130]	81.311
CCN1CCN(C(=O)c2csnn2)CC1 [CBK200376]	105.114
Oc1cc2cccnc2nc1-c1ccccc1 [CBK073697]	75.532
O=C1Nc2ccccc2C1Cc1cccc(OC(F)F)c1 (centres unmarked) [CBK287892]	86.6949
O=C(NC(=S)Nc1ccc2oc(-c3cccc4ccccc34)nc2c1)c1ccco1 [CBK263691]	111.719
CC1CCc2nn(CCNC(=O)C3CCCC3)c(=O)cc2C1 (centres unmarked) [CBK284484]	106.147
